Source: patent US20240076343A1 (CEPHALON, published 2024)

T1: high-affinity hIL-2 receptor (IL-2Rαβγ) (human, UniProt P01589 22-272; P14784 27-551; P31785 23-369)
T1 sequence 1: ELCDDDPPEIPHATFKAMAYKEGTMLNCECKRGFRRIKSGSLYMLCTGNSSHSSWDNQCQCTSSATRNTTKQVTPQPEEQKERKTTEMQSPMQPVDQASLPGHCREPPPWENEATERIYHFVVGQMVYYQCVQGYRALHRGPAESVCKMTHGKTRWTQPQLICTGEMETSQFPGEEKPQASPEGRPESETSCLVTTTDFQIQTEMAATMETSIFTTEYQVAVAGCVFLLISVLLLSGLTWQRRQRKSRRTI
T1 sequence 2: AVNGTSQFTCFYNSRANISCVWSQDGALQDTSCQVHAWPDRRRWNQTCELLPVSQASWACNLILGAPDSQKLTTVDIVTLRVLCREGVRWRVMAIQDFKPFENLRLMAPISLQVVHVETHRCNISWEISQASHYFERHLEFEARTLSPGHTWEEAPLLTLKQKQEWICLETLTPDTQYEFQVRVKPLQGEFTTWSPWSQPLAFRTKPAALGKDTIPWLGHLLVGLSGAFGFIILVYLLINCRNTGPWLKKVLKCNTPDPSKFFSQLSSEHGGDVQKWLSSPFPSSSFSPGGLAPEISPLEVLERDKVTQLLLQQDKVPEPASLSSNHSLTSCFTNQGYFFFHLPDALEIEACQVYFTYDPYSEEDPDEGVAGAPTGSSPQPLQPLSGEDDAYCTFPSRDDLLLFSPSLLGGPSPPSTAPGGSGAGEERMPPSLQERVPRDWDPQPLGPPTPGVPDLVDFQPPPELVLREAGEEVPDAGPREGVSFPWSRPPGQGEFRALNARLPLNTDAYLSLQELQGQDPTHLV
T1 sequence 3: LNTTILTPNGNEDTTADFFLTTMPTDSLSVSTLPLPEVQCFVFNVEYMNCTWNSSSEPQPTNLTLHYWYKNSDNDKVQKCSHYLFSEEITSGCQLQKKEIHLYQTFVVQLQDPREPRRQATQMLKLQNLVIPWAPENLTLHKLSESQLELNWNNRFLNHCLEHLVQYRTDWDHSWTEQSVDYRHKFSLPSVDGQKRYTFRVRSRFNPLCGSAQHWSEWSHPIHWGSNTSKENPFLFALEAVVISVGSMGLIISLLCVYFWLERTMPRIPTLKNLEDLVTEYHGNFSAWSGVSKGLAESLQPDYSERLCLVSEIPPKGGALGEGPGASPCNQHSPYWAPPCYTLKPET

T2: intermediate affinity hIL-2 receptor complex (IL-2Rβγ) (human, UniProt P14784 27-551; P31785 23-369)
T2 sequence 1: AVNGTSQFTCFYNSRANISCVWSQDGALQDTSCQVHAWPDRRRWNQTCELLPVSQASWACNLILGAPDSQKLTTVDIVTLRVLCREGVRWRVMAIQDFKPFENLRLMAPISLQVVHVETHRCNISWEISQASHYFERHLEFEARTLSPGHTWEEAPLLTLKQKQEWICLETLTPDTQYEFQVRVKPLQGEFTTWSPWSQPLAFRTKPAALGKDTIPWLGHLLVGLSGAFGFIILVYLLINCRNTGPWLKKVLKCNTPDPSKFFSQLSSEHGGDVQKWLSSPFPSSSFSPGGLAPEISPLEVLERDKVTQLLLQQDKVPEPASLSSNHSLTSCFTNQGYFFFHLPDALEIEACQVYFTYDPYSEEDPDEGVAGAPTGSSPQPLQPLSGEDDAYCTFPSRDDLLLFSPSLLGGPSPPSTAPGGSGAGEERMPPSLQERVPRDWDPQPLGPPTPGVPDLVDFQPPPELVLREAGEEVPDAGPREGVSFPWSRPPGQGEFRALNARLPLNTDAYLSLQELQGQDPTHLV
T2 sequence 2: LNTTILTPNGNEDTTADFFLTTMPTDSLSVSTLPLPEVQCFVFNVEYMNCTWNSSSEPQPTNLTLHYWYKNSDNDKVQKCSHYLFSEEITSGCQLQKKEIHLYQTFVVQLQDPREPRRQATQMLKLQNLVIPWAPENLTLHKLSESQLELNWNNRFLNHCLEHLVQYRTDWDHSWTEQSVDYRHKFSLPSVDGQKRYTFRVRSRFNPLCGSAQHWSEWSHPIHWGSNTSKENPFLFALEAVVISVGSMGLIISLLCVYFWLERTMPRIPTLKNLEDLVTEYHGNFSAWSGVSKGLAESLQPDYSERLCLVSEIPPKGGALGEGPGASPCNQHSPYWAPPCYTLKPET


What was measured:
[1] = biological target: T1, high-affinity hIL-2 receptor (IL-2Rαβγ); test: cell-based or functional assay
[2] = biological target: T2, intermediate affinity hIL-2 receptor …; test: cell-based or functional assay

Fold change from rhIL-2 (NK-92), pSTAT5 titration [1] | Fold change from rhIL-2 (TF1 + IL-2Rβ), pSTAT5 titration [2] | Binder
> 10000 fold | > 10000 fold | 1H3-hIgG1-L6-hCD25(1-164)-L20-hIL-2 (D20H) (other) heavy: EVQLVESGGGLVQPGRSLKLSCAVSGFTFSDYAMAWVRQAPKKGLEWVATISYDGSRTYYRDSVKGRFTISRDNAKITLYLQMDSLRSEDTATYYCARHGSGYFDYWGQGVMVTVSS[not shown - human IgG1 constant region]SGGGGSELCDDDPPEIPHATFKAMAYKEGTMLNCECKRGFRRIKSGSLYMLCTGNSSHSSWDNQCQCTSSATRNTTKQVTPQPEEQKERKTTEMQSPMQPVDQASLPGHCREPPPWENEATERIYHFVVGQMVYYQCVQGYRALHRGPAESVCKMTHGKTRWTQPQLICTSGGGGSGGGGSGGGGSGGGS[not shown - about 150 residues] light: DTVLTQSPALAVSPGERVTISCRASESVRTGVHWYQQKPGQQPKLLIYGASNLESGVPARFSGSGSGTDFTLTIDPVEADDTATYFCQQSWNDPFTFGSGTKLEIKRTVAAPSVFIFPPSDEQLKSGTASVVCLLNNFYPREAKVQWKVDNALQSGNSQESVTEQDSKDSTYSLSSTLTLSKADYEKHKVYACEVTHQGLSSPVTKSFNRGEC
> 10000 fold | > 10000 fold | 1H3-hIgG1-L6-hCD25(1-164)-L20-hIL-2 (D84K) (other) heavy: EVQLVESGGGLVQPGRSLKLSCAVSGFTFSDYAMAWVRQAPKKGLEWVATISYDGSRTYYRDSVKGRFTISRDNAKITLYLQMDSLRSEDTATYYCARHGSGYFDYWGQGVMVTVSS[not shown - human IgG1 constant region]SGGGGSELCDDDPPEIPHATFKAMAYKEGTMLNCECKRGFRRIKSGSLYMLCTGNSSHSSWDNQCQCTSSATRNTTKQVTPQPEEQKERKTTEMQSPMQPVDQASLPGHCREPPPWENEATERIYHFVVGQMVYYQCVQGYRALHRGPAESVCKMTHGKTRWTQPQLICTSGGGGSGGGGSGGGGSGGGS[not shown - about 150 residues] light: DTVLTQSPALAVSPGERVTISCRASESVRTGVHWYQQKPGQQPKLLIYGASNLESGVPARFSGSGSGTDFTLTIDPVEADDTATYFCQQSWNDPFTFGSGTKLEIKRTVAAPSVFIFPPSDEQLKSGTASVVCLLNNFYPREAKVQWKVDNALQSGNSQESVTEQDSKDSTYSLSSTLTLSKADYEKHKVYACEVTHQGLSSPVTKSFNRGEC
> 10000 fold | > 10000 fold | 1H3-hIgG1-L6-hCD25(1-164)-L20-hIL-2 (D20W) (other) heavy: EVQLVESGGGLVQPGRSLKLSCAVSGFTFSDYAMAWVRQAPKKGLEWVATISYDGSRTYYRDSVKGRFTISRDNAKITLYLQMDSLRSEDTATYYCARHGSGYFDYWGQGVMVTVSS[not shown - human IgG1 constant region]SGGGGSELCDDDPPEIPHATFKAMAYKEGTMLNCECKRGFRRIKSGSLYMLCTGNSSHSSWDNQCQCTSSATRNTTKQVTPQPEEQKERKTTEMQSPMQPVDQASLPGHCREPPPWENEATERIYHFVVGQMVYYQCVQGYRALHRGPAESVCKMTHGKTRWTQPQLICTSGGGGSGGGGSGGGGSGGGS[not shown - about 150 residues] light: DTVLTQSPALAVSPGERVTISCRASESVRTGVHWYQQKPGQQPKLLIYGASNLESGVPARFSGSGSGTDFTLTIDPVEADDTATYFCQQSWNDPFTFGSGTKLEIKRTVAAPSVFIFPPSDEQLKSGTASVVCLLNNFYPREAKVQWKVDNALQSGNSQESVTEQDSKDSTYSLSSTLTLSKADYEKHKVYACEVTHQGLSSPVTKSFNRGEC

Second part, the binder before the results:

Binder | Fold change from rhIL-2 (NK-92), pSTAT5 titration [1] | Fold change from rhIL-2 (TF1 + IL-2Rβ), pSTAT5 titration [2]
1H3-hIgG1-L6-hCD25(1-164)-L20-hIL-2 (D20R) (other) heavy: EVQLVESGGGLVQPGRSLKLSCAVSGFTFSDYAMAWVRQAPKKGLEWVATISYDGSRTYYRDSVKGRFTISRDNAKITLYLQMDSLRSEDTATYYCARHGSGYFDYWGQGVMVTVSS[not shown - human IgG1 constant region]SGGGGSELCDDDPPEIPHATFKAMAYKEGTMLNCECKRGFRRIKSGSLYMLCTGNSSHSSWDNQCQCTSSATRNTTKQVTPQPEEQKERKTTEMQSPMQPVDQASLPGHCREPPPWENEATERIYHFVVGQMVYYQCVQGYRALHRGPAESVCKMTHGKTRWTQPQLICTSGGGGSGGGGSGGGGSGGGS[not shown - about 150 residues] light: DTVLTQSPALAVSPGERVTISCRASESVRTGVHWYQQKPGQQPKLLIYGASNLESGVPARFSGSGSGTDFTLTIDPVEADDTATYFCQQSWNDPFTFGSGTKLEIKRTVAAPSVFIFPPSDEQLKSGTASVVCLLNNFYPREAKVQWKVDNALQSGNSQESVTEQDSKDSTYSLSSTLTLSKADYEKHKVYACEVTHQGLSSPVTKSFNRGEC | > 10000 fold | > 10000 fold
1H3-hIgG1-L6-hCD25(1-164)-L20-hIL-2 (D20Y) (other) heavy: EVQLVESGGGLVQPGRSLKLSCAVSGFTFSDYAMAWVRQAPKKGLEWVATISYDGSRTYYRDSVKGRFTISRDNAKITLYLQMDSLRSEDTATYYCARHGSGYFDYWGQGVMVTVSS[not shown - human IgG1 constant region]SGGGGSELCDDDPPEIPHATFKAMAYKEGTMLNCECKRGFRRIKSGSLYMLCTGNSSHSSWDNQCQCTSSATRNTTKQVTPQPEEQKERKTTEMQSPMQPVDQASLPGHCREPPPWENEATERIYHFVVGQMVYYQCVQGYRALHRGPAESVCKMTHGKTRWTQPQLICTSGGGGSGGGGSGGGGSGGGS[not shown - about 150 residues] light: DTVLTQSPALAVSPGERVTISCRASESVRTGVHWYQQKPGQQPKLLIYGASNLESGVPARFSGSGSGTDFTLTIDPVEADDTATYFCQQSWNDPFTFGSGTKLEIKRTVAAPSVFIFPPSDEQLKSGTASVVCLLNNFYPREAKVQWKVDNALQSGNSQESVTEQDSKDSTYSLSSTLTLSKADYEKHKVYACEVTHQGLSSPVTKSFNRGEC | > 10000 fold | > 10000 fold
1H3-hIgG1-L6-hCD25(1-164)-L20-hIL-2 (D20F) (other) heavy: EVQLVESGGGLVQPGRSLKLSCAVSGFTFSDYAMAWVRQAPKKGLEWVATISYDGSRTYYRDSVKGRFTISRDNAKITLYLQMDSLRSEDTATYYCARHGSGYFDYWGQGVMVTVSS[not shown - human IgG1 constant region]SGGGGSELCDDDPPEIPHATFKAMAYKEGTMLNCECKRGFRRIKSGSLYMLCTGNSSHSSWDNQCQCTSSATRNTTKQVTPQPEEQKERKTTEMQSPMQPVDQASLPGHCREPPPWENEATERIYHFVVGQMVYYQCVQGYRALHRGPAESVCKMTHGKTRWTQPQLICTSGGGGSGGGGSGGGGSGGGS[not shown - about 150 residues] light: DTVLTQSPALAVSPGERVTISCRASESVRTGVHWYQQKPGQQPKLLIYGASNLESGVPARFSGSGSGTDFTLTIDPVEADDTATYFCQQSWNDPFTFGSGTKLEIKRTVAAPSVFIFPPSDEQLKSGTASVVCLLNNFYPREAKVQWKVDNALQSGNSQESVTEQDSKDSTYSLSSTLTLSKADYEKHKVYACEVTHQGLSSPVTKSFNRGEC | > 10000 fold | > 10000 fold
